Laboratory results taken from a collection of fitness landscapes (doi:10.1038/s41467-024-54723-y).
In all, about 18,000 sequences were measured (“TetR repression strength (sort-seq, GFP reporter)”: median about 0.23, highest 2% from about 0.68 on). The list shows a part of the results.

These sequences were tested against TetR (class B, Tn10) (UniProt P04483) (assay: TetR repression strength (sort-seq, GFP reporter) (relative to tetO2 = 1); higher = stronger repression). Details: E. coli.
UniProt P04483, sequence (P04483 whole entry): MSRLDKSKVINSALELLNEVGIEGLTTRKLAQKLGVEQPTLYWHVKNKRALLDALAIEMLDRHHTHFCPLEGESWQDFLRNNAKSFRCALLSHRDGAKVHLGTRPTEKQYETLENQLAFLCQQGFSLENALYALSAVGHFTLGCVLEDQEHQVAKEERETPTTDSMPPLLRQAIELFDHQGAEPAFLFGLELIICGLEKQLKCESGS
Summary of the method: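 Three independent transformations of E. coli SIG10-MAX were made with a low-copy plasmid library randomizing eight operator positions between a constitutive promoter and sfGFP, with constitutive TetR. Following 5 h at 37 °C in LB plus 50 µg/mL chloramphenicol, 10^6 cells went through FACS into 13 fluorescence bins, and each bin was sequenced by Illumina. Repression strength was defined as the top bin index plus one minus the read-weighted mean bin, divided by the unaltered operator's value. Averages included only members reaching ≥30 reads in all replicates with a CV ≤0.5.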
With TCCCTGGGAGTGTGAGAGA the TetR repression strength was 0.18. Work on TCCCCCGCAGTATTTGAGA yielded a TetR repression strength of 0.298. With TCCCGTATAGTTAATGAGA the TetR repression strength was 0.0736. In the case of TCCCTAGGAGTGGCTGAGA, the TetR repression strength is reported as 0.676. For TCCCAGTGAGTGTAGGAGA, the TetR repression strength was 0.318. With TCCCGTCCAGTCGCCGAGA the TetR repression strength was 0.232. Work on TCCCACACAGTGGCAGAGA yielded a TetR repression strength of 0.173. For TCCCTGATAGTAGAGGAGA, the TetR repression strength was 0.384. Work on TCCCGTCGAGTGGGGGAGA yielded a TetR repression strength of 0.183. TCCCAGTCAGTCCATGAGA gave a TetR repression strength of 0.057. Sequence TCCCACTCAGTCAAGGAGA has a TetR repression strength of 0.439. With TCCCGTTTAGTTTAAGAGA the TetR repression strength was 0.419. For TCCCTTGCAGTCCGGGAGA, the TetR repression strength was 0.0195. Sequence TCCCGAGTAGTTTTTGAGA has a TetR repression strength of 0.159. With TCCCTTAAAGTGGGGGAGA the TetR repression strength was 0.245. In the case of TCCCGTTCAGTATACGAGA, the TetR repression strength is reported as 0.165. For TCCCAAGCAGTTAACGAGA, the TetR repression strength was 0.284. Work on TCCCTTCGAGTTACAGAGA yielded a TetR repression strength of 0.43. TCCCTGGAAGTAGGGGAGA showed a TetR repression strength of 0.303. In the case of TCCCGGTCAGTGTCAGAGA, the TetR repression strength is reported as 0.332. Work on TCCCAGGTAGTGATAGAGA yielded a TetR repression strength of 0.622. With TCCCATTCAGTGCATGAGA the TetR repression strength was 0.501. With TCCCAGCAAGTAGACGAGA the TetR repression strength was 0.0773. TCCCATATAGTTTGTGAGA showed a TetR repression strength of 0.109. Work on TCCCCGCGAGTATGGGAGA yielded a TetR repression strength of 0.239. Work on TCCCGCCGAGTGTGCGAGA yielded a TetR repression strength of 0.147. In the case of TCCCACAAAGTGTGAGAGA, the TetR repression strength is reported as 0.17. With TCCCATCTAGTGGCTGAGA the TetR repression strength was 0.341. With TCCCTTTCAGTGGGGGAGA the TetR repression strength was 0.197. For TCCCACTGAGTTAGGGAGA, the TetR repression strength was 0.271. Work on TCCCGTGCAGTCACGGAGA yielded a TetR repression strength of 0.161. TCCCGGCTAGTGGGAGAGA was tested, and the TetR repression strength was 0.324. In the case of TCCCATCCAGTTAGAGAGA, the TetR repression strength is reported as 0.275. In the case of TCCCACAAAGTTATGGAGA, the TetR repression strength is reported as 0.214. Work on TCCCGGTAAGTTTCTGAGA yielded a TetR repression strength of 0.231. Sequence TCCCCGCAAGTACACGAGA has a TetR repression strength of 0.292. With TCCCTTTAAGTCCGTGAGA the TetR repression strength was 0.518. TCCCTTCAAGTTGAAGAGA showed a TetR repression strength of 0.13. With TCCCACTGAGTAAGCGAGA the TetR repression strength was 0.127. For TCCCTCTGAGTTTGCGAGA, the TetR repression strength was 0.335. Work on TCCCCACGAGTTTCTGAGA yielded a TetR repression strength of 0.492. TCCCCGATAGTTCGTGAGA showed a TetR repression strength of 0.23. For TCCCGGCTAGTGTTTGAGA, the TetR repression strength was 0.24. For TCCCTTTTAGTGTGAGAGA, the TetR repression strength was 0.244. TCCCGTTGAGTGACTGAGA showed a TetR repression strength of 0.105. TCCCCGGAAGTGGGTGAGA showed a TetR repression strength of 0.244. Sequence TCCCGTGAAGTATATGAGA has a TetR repression strength of 0.356. Work on TCCCCTGTAGTCTTCGAGA yielded a TetR repression strength of 0.277. TCCCGAATAGTTCAGGAGA was tested, and the TetR repression strength was 0.284. In the case of TCCCAGAGAGTCGGGGAGA, the TetR repression strength is reported as 0.196. Work on TCCCGTGCAGTTTGCGAGA yielded a TetR repression strength of 0.323. With TCCCTCAAAGTTCTCGAGA the TetR repression strength was 0.207. For TCCCCTGGAGTTGCGGAGA, the TetR repression strength was 0.258. Sequence TCCCAGGAAGTTGTTGAGA has a TetR repression strength of 0.281. For TCCCATGCAGTGTAGGAGA, the TetR repression strength was 0.173. TCCCGTTTAGTACCCGAGA was tested, and the TetR repression strength was 0.048. TCCCCTGGAGTAACAGAGA gave a TetR repression strength of 0.587. With TCCCAGGGAGTGGAAGAGA the TetR repression strength was 0.235. Sequence TCCCGTTCAGTCGCGGAGA has a TetR repression strength of 0.188. Sequence TCCCAATCAGTTATCGAGA has a TetR repression strength of 0.468. For TCCCACTCAGTGAGGGAGA, the TetR repression strength was 0.255. TCCCTTTTAGTTCGTGAGA was tested, and the TetR repression strength was 0.36. Work on TCCCAGGTAGTGCGGGAGA yielded a TetR repression strength of 0.279. Work on TCCCAGCTAGTGGACGAGA yielded a TetR repression strength of 0.295. For TCCCGGCAAGTGGAGGAGA, the TetR repression strength was 0.066. With TCCCATCCAGTTGGAGAGA the TetR repression strength was 0.387. TCCCCATTAGTGTTTGAGA gave a TetR repression strength of 0.207. TCCCACTAAGTCGTGGAGA showed a TetR repression strength of 0.15. In the case of TCCCGCGTAGTTAATGAGA, the TetR repression strength is reported as 0.421. TCCCTGTGAGTGTGTGAGA showed a TetR repression strength of 0.265. TCCCTTCGAGTGATCGAGA showed a TetR repression strength of 0.274. TCCCTAGCAGTCGGTGAGA was tested, and the TetR repression strength was 0.29. Sequence TCCCGGGTAGTTAAAGAGA has a TetR repression strength of 0.583. TCCCTAGCAGTATGAGAGA was tested, and the TetR repression strength was 0.258. Sequence TCCCTTGCAGTAATTGAGA has a TetR repression strength of 0.155. TCCCGGTCAGTGAGAGAGA gave a TetR repression strength of 0.591. For TCCCGTCGAGTGCACGAGA, the TetR repression strength was 0.0838. TCCCTGTCAGTTGCCGAGA gave a TetR repression strength of 0.239. For TCCCTAGAAGTTACTGAGA, the TetR repression strength was 0.18. For TCCCGGTAAGTGTCAGAGA, the TetR repression strength was 0.573. TCCCGCTTAGTGTCAGAGA showed a TetR repression strength of 0.634. TCCCAAATAGTGTGGGAGA was tested, and the TetR repression strength was 0.459. In the case of TCCCGGCCAGTCAGGGAGA, the TetR repression strength is reported as 0.2. For TCCCGCCAAGTGTTGGAGA, the TetR repression strength was 0.253. With TCCCTGCGAGTGGGAGAGA the TetR repression strength was 0.293. In the case of TCCCCGTCAGTAGATGAGA, the TetR repression strength is reported as 0.216. Work on TCCCATGGAGTACTTGAGA yielded a TetR repression strength of 0.233. TCCCTAATAGTAGCGGAGA was tested, and the TetR repression strength was 0.26. With TCCCGCCGAGTGTGTGAGA the TetR repression strength was 0.0483. Sequence TCCCCAACAGTCAGGGAGA has a TetR repression strength of 0.314. TCCCTTGCAGTGAAAGAGA showed a TetR repression strength of 0.651. In the case of TCCCTTTAAGTAATCGAGA, the TetR repression strength is reported as 0.252. TCCCGTGCAGTATAAGAGA was tested, and the TetR repression strength was 0.164. TCCCGTGAAGTAGCCGAGA showed a TetR repression strength of 0.126. In the case of TCCCACGGAGTCGTGGAGA, the TetR repression strength is reported as 0.182. For TCCCCATAAGTAAAAGAGA, the TetR repression strength was 0.317. With TCCCTAACAGTAACTGAGA the TetR repression strength was 0.457. Sequence TCCCAGTTAGTGGCAGAGA has a TetR repression strength of 0.348. With TCCCGGGCAGTAACTGAGA the TetR repression strength was 0.239. Sequence TCCCGGTCAGTGGCAGAGA has a TetR repression strength of 0.395. Work on TCCCTGTTAGTTAGGGAGA yielded a TetR repression strength of 0.571. TCCCTGCGAGTCGCCGAGA showed a TetR repression strength of 0.317.
